In the antibiotic and cytotoxicity screens of Wong et al. (2023):
The list shows a part of the results.

Key:
HSkMC = human skeletal muscle cells; experiment: cytotoxicity call (relative viability < 0.9); conditions: 10 µM
HepG2 = experiment: cytotoxicity call (relative viability < 0.9); conditions: 10 µM
S. aureus RN4220 = experiment: growth inhibition call (relative growth <= 0.2); conditions: 50 µM

| Compound | cytotoxicity call (HSkMC) | cytotoxicity call (HepG2) | growth inhibition call (S. aureus RN4220) |
| --- | --- | --- | --- |
| NCc1c[nH]c(=S)n1[C@H]1CCc2c(F)cc(F)cc2C1 | inactive | inactive | inactive |
| COc1ccc(O)cn1 | inactive | inactive | inactive |
| C[C@@H]1CN([C@H](C)CO)C(=O)c2cc(NC(=O)Nc3ccc(C(F)(F)F)cc3)ccc2O[C@@H](C)CCCCO[C@@H]1CN(C)CC1CCCCC1 | active | active | inactive |
| CN1C(=O)NC2(CCNCC2)C1=O | inactive | inactive | inactive |
| COC(=O)C[C@H]1CC[C@@H](N)[C@H](CO)O1 | inactive | inactive | inactive |
| C[C@H]1CN([C@@H](C)CO)C(=O)c2cc(/C=C/c3ccccc3)cnc2O[C@H]1CN(C)S(=O)(=O)c1cn(C)cn1 | inactive | inactive | inactive |
| C[C@H]1CN([C@@H](C)CO)C(=O)c2cc(NC(=O)Nc3cccc4ccccc34)ccc2O[C@@H]1CN(C)Cc1ccc(Oc2ccccc2)cc1 | inactive | active | inactive |
| CC=C(C)C(=O)OC1C(OC(C)=O)C2(CO)C(O)CC3(C)C(=CCC4C5(C)CCC(OC6OC(C(=O)O)C(OC7OC(CO)C(O)C(O)C7O)C(O)C6OC6OC(CO)C(O)C(O)C6O)C(C)(CO)C5CCC43C)C2CC1(C)C (stereo unspecified) | active | active | inactive |
| C[C@H](CO)N1C[C@H](C)[C@H](CN(C)S(=O)(=O)c2ccc(Cl)cc2)Oc2ccc(NC(=O)Nc3cccc4ccccc34)cc2C1=O | inactive | inactive | inactive |
| CC(C)CC#Cc1ccc2c(c1)O[C@@H](CN(C)C(=O)Cc1ccccn1)[C@H](C)CN([C@@H](C)CO)S2(=O)=O | inactive | inactive | inactive |
| NC1=NC(=O)C[C@H](Cc2ccccc2)N1 | inactive | inactive | inactive |
| C[C@H](CO)N1C[C@H](C)[C@@H](CN(C)S(=O)(=O)c2cn(C)cn2)Oc2ccc(NS(C)(=O)=O)cc2C1=O | inactive | inactive | inactive |
| C[C@@H]1CCCCO[C@H](CN(C)S(=O)(=O)c2ccc(Cl)cc2)[C@H](C)CN([C@@H](C)CO)C(=O)c2cc(NC(=O)Nc3cccc4ccccc34)ccc2O1 | inactive | inactive | inactive |
| COc1ccc2c3c([nH]c2c1)[C@H](CO)N(C[C@]13CN(C1)S(=O)(=O)C)C(=O)c1cnccn1 | inactive | inactive | inactive |
| C[C@H]1CN([C@@H](C)CO)S(=O)(=O)c2ccc(-c3ccc(C(=O)N(C)C)cc3)cc2O[C@@H]1CN(C)C(=O)C1CC1 | inactive | inactive | inactive |
| C[C@H](CO)N1C[C@H](C)[C@@H](CN(C)S(=O)(=O)c2ccccc2)Oc2ccc(NC(=O)C3CC3)cc2CC1=O | inactive | inactive | inactive |
| CNC[C@H]1OCCCC[C@H](C)Oc2ccc(NS(=O)(=O)c3c(C)noc3C)cc2C(=O)N([C@@H](C)CO)C[C@H]1C | inactive | inactive | inactive |
| CN1CCN(C(=O)C[C@@H]2CC[C@@H]3[C@H](COC[C@@H](O)CN3C(=O)C3CCCC3)O2)CC1 | inactive | inactive | inactive |
| O=C(O[C@H]1[C@H](O)[C@@H](CO)O[C@H](c2c(O)cc(O)c(C(=O)c3ccc(O)cc3)c2O)[C@H]1OC(=O)c1cc(O)c(O)c(O)c1)c1cc(O)c(O)c(O)c1 | inactive | active | inactive |
| CC(C)NC(=O)Nc1ccc2c(c1)CC(=O)N([C@H](C)CO)C[C@H](C)[C@@H](CN(C)Cc1ccc(Oc3ccccc3)cc1)O2 | inactive | inactive | inactive |
| C[C@H]1CN([C@@H](C)CO)C(=O)c2cccc(NS(=O)(=O)c3ccc(F)cc3)c2O[C@H]1CN(C)Cc1ccc(Oc2ccccc2)cc1 | inactive | inactive | inactive |
| C[C@@H]1CN([C@H](C)CO)S(=O)(=O)c2ccc(-c3ccncc3)cc2O[C@@H]1CN(C)C(=O)c1ccc2c(c1)OCO2 | inactive | inactive | inactive |
| C[C@H]1CN([C@@H](C)CO)S(=O)(=O)c2ccc(C#CC3(O)CCCC3)cc2O[C@@H]1CN(C)C(=O)Cc1ccncc1 | inactive | inactive | inactive |
| C[C@H]1CN([C@@H](C)CO)C(=O)Cc2cc(NC(=O)Nc3cccc4ccccc34)ccc2O[C@H]1CN(C)Cc1ccccc1 | inactive | inactive | inactive |
| C[C@H]1CN([C@@H](C)CO)C(=O)c2cc(NC(=O)Cn3cnnn3)ccc2O[C@@H]1CN(C)C(=O)Nc1ccc(F)cc1 | inactive | inactive | inactive |
| C=C(NC(=O)C(=C)NC(=O)c1csc(C2=N[C@@H]3c4csc(n4)[C@@H]4NC(=O)c5csc(n5)[C@H](C(C)(O)[C@@H](C)O)NC(=O)[C@H]5CSC(=N5)/C(=C/C)NC(=O)[C@H]([C@@H](C)O)NC(=O)c5csc(n5)[C@]3(CC2)NC(=O)[C@@H](C)NC(=O)C(=C)NC(=O)[C@@H](C)NC(=O)[C@@H]([C@H](C)CC)N[C@H]2C=Cc3c([C@@H](C)O)cc(nc3[C@@H]2O)C(=O)O[C@H]4C)n1)C(N)=O (stereo partly specified) | inactive | inactive | inactive |
| COc1ccc(-c2cnc3c(c2)C(=O)N([C@@H](C)CO)C[C@@H](C)[C@@H](CN(C)C(=O)Cc2cccnc2)O3)cc1 | inactive | inactive | inactive |
